According to the supplement of paper PMC6657886:
MIC of clinical N. gonorrhoeae isolates (2015-2017) by agar dilution on GC agar with 1% IsoVitaleX (ranges not stated); higher = less susceptible. No active / inactive call per row; the paper counts benzylpenicillin above 1 and ceftriaxone above 0.125 mg/L as resistant (EUCAST). The method is stated for benzylpenicillin and ceftriaxone and assumed for the other drugs. '<=' is inferred from pile-ups at the end values. Isolates are numbered anew.

Assays:
Experiment in all cases: Agar dilution on enriched GC agar; resistance determinants by microarray.
benzylpenicillin = compound: CC1(C)S[C@@H]2[C@H](NC(=O)Cc3ccccc3)C(=O)N2[C@H]1C(=O)O [benzylpenicillin]
azithromycin = compound: CC[C@H]1OC(=O)[C@H](C)[C@@H](O[C@H]2C[C@@](C)(OC)[C@@H](O)[C@H](C)O2)[C@H](C)[C@@H](O[C@@H]2O[C@H](C)C[C@H](N(C)C)[C@H]2O)[C@](C)(O)C[C@@H](C)CN(C)[C@H](C)[C@@H](O)[C@]1(C)O [azithromycin]
tetracycline = compound: CN(C)[C@@H]1C(O)=C(C(N)=O)C(=O)[C@@]2(O)C(O)=C3C(=O)c4c(O)cccc4[C@@](C)(O)[C@H]3C[C@@H]12 [tetracycline]
spectinomycin = compound: CN[C@@H]1[C@H](O)[C@H](NC)[C@H]2O[C@@]3(O)C(=O)C[C@@H](C)O[C@H]3O[C@@H]2[C@H]1O [spectinomycin]
ceftriaxone = compound: CO/N=C(\C(=O)N[C@@H]1C(=O)N2C(C(=O)O)=C(CSc3nc(=O)c(O)nn3C)CS[C@H]12)c1csc(N)n1 [ceftriaxone]

Row | Test System | MIC (benzylpenicillin) [µg/mL] | MIC (azithromycin) [µg/mL] | MIC (tetracycline) [µg/mL] | MIC (spectinomycin) [µg/mL] | MIC (ceftriaxone) [µg/mL]
1 | Neisseria gonorrhoeae isolate 27 (blaTEM plasmid: no, gyrA: wild type, mtrR promoter: wild type, parC: wild type, penA: ins345Asp, ponA: wild type, porB: Asp120, Ala121, rpsJ: wild type, tetM plasmid: no) | 0.25 | 0.008 | 0.06 | 32 | 0.25
2 | Neisseria gonorrhoeae isolate 94 (blaTEM plasmid: no, gyrA: wild type, mtrR promoter: -35delA, parC: wild type, penA: ins345Asp, ponA: wild type, porB: wild type, rpsJ: wild type, tetM plasmid: no) | ≤ 0.015 | 0.06 | 0.25 | 16 | ≤ 0.002
3 | Neisseria gonorrhoeae isolate 123 (blaTEM plasmid: no, gyrA: wild type, mtrR promoter: wild type, parC: wild type, penA: ins345Asp, ponA: wild type, porB: wild type, rpsJ: wild type, tetM plasmid: no) | ≤ 0.015 | 0.015 | 0.06 | 32 | 0.004
4 | Neisseria gonorrhoeae isolate 45 (blaTEM plasmid: no, gyrA: wild type, mtrR promoter: wild type, parC: wild type, penA: wild type, ponA: wild type, porB: wild type, rpsJ: wild type, tetM plasmid: no) | 0.25 | 0.06 | 0.5 | 16 | ≤ 0.002
5 | Neisseria gonorrhoeae isolate 33 (blaTEM plasmid: no, gyrA: wild type, mtrR promoter: wild type, parC: wild type, penA: wild type, ponA: wild type, porB: wild type, rpsJ: wild type, tetM plasmid: no) | ≤ 0.015 | 0.06 | 0.12 | 16 | ≤ 0.002
6 | Neisseria gonorrhoeae isolate 77 (blaTEM plasmid: no, gyrA: wild type, mtrR promoter: wild type, parC: wild type, penA: wild type, ponA: wild type, porB: wild type, rpsJ: wild type, tetM plasmid: no) | ≤ 0.015 | 0.06 | 0.12 | 16 | ≤ 0.002
7 | Neisseria gonorrhoeae isolate 48 (blaTEM plasmid: no, gyrA: wild type, mtrR promoter: -35delA, parC: Ile 87, Glu91, penA: ins345Asp, ponA: Pro421, porB: Asp120, Gly121, rpsJ: wild type, tetM plasmid: no) | 0.5 | 0.25 | 1 | 16 | 0.008
8 | Neisseria gonorrhoeae isolate 133 (blaTEM plasmid: no, gyrA: wild type, mtrR promoter: wild type, parC: wild type, penA: ins345Asp, ponA: wild type, porB: wild type, rpsJ: wild type, tetM plasmid: no) | 0.06 | 0.06 | 0.12 | 16 | 0.008
9 | Neisseria gonorrhoeae isolate 418 (blaTEM plasmid: no, gyrA: wild type, mtrR promoter: wild type, parC: Arg87, Glu91, penA: wild type, ponA: wild type, porB: wild type, rpsJ: wild type, tetM plasmid: no) | ≤ 0.015 | 0.03 | 0.06 | 8 | ≤ 0.002
10 | Neisseria gonorrhoeae isolate 507 (blaTEM plasmid: yes, gyrA: Phe91, Ala95, mtrR promoter: wild type, parC: Asn87, Gly91, penA: ins345Asp, ponA: Pro421, porB: Lys 120, Gly121, rpsJ: Met57, tetM plasmid: yes) | 16 | 0.25 | 32 | 32 | 0.03
11 | Neisseria gonorrhoeae isolate 224 (blaTEM plasmid: no, gyrA: wild type, mtrR promoter: wild type, parC: wild type, penA: wild type, ponA: wild type, porB: wild type, rpsJ: wild type, tetM plasmid: no) | ≤ 0.015 | 0.06 | 0.12 | 16 | ≤ 0.002
